biological target: human Cav2.2 (Homo sapiens, UniProt Q00975); assay: In vitro assessment of calcium channel activity using FLIPR (Ca2+ influx in IMR32 cells); format: cell-based; settings: IMR32 cells endogenously expressing human Cav2.2; Calcium 4 dye, 60 minute pre-incubation, 2 μM nifedipine, depolarized with 80 mM KCl; average of at least two runs unless marked *
Description: The IMR32 cells were maintained in MEM media containing 10% (v/v) FBS, 1% (v/v) antibiotic/antimitotic, 1% (v/v) sodium pyruvate and 1% (v/v) MEM NEAA. Following dissociation in 0.05% (v/v) trypsin/EDTA, cells were seeded into black 1×96-well plates (Corning Cellbind) at a density of 1−1.2×10^5 cells/well and incubated in the maintenance media above for 48 hours at 37° C. Immediately prior to performing the assay the media was removed and cells were loaded for 1.5 hours with 1× Calcium 4 dye prepared in HBSS (137 mM NaCl, 5.4 mM KCl, 0.25 mM Na2HPO4, 0.44 mM KH2PO4, 1.3 mM CaCl2, 1 mM MgSO4, 4.2 mM NaHCO3) containing HEPES pH 7.4 at room temperature. After dye loading and a subsequent 60 minute pre-incubation with compounds (full log dilutions from 10 μM to 0.1 nM) in the presence of 1.3 mM CaCl2 and 2 μM nifedipine to block endogenous L-type channels, the external Ca^2+ concentration was increased to 5 mM CaCl2 and the cells concomitantly depolarized with 80 mM KCl to assay channel activity. To determine the IC50 values, the percent inhibition of the compound at each concentration was determined relative to the activity in the absence of inhibitor, and data was fitted using non-linear regression sigmoidal dose response curve analysis with GraphPad Prism®. Unless otherwise indicated (*), the reported values are average values from at least two runs (i.e., n≧2).

Row | Molecule | IC50 [nM]
1 | 2-chloro-5-{[(7R,8aS)-7-[(5-cyclopropylpyrazin-2-yl)oxy]hexahydropyrrolo[1,2-a]pyrazin-2(1H)-yl]sulfonyl}benzonitrile [Example 68] | 1040
2 | O=S(=O)(c1cccc(C(F)(F)F)c1)N1CCN2CC[C@@H](Oc3ccc(Cl)cn3)[C@@H]2C1 (relative stereo) [Example 35, (8R*,8aS*)-8-[(5-chloropyridin-2-yl)oxy]-2-{[3-(trifluoromethyl)phenyl]-sulfonyl}octahydropyrrolo[1,2-a]pyrazine] | 850
3 | O=S(=O)(c1cccc(C(F)(F)F)c1)N1CCN2CC[C@@H](Oc3ccc(Cl)cn3)[C@H]2C1 (relative stereo) [Example 36, (8R*,8aR*)-8-[(5-chloropyridin-2-yl)oxy]-2-{[3-(trifluoromethyl)phenyl]-sulfonyl}octahydropyrrolo[1,2-a]pyrazine] | 850
4 | O=C(N[C@H]1C[C@H]2CN(S(=O)(=O)c3cccc(C(F)(F)F)c3)CCN2C1)c1ccc(F)cc1 [Example 1, 4-fluoro-N-[(7S,8aS)-2-{[3-(trifluoromethyl)phenyl]sulfonyl}octahydropyrrolo[1,2-a]pyrazin-7-yl]benzamide] | 1150
5 | O=C(N[C@H]1C[C@H]2CN(S(=O)(=O)c3ccc(C(F)(F)F)cc3)CCN2C1)c1ccc(F)cc1 [Example 2, 4-fluoro-N-[(7S,8aS)-2-{[4-(trifluoromethyl)phenyl]sulfonyl}-octahydropyrrolo[1,2-a]pyrazin-7-yl]benzamide] | 1730
6 | O=C(N[C@H]1C[C@H]2CN(S(=O)(=O)c3ccc(C(F)(F)F)cc3Cl)CCN2C1)c1ccc(F)cc1 [Example 3, N-[(7S,8aS)-2-{[2-chloro-4-(trifluoromethyl)phenyl]sulfonyl}octahydropyrrolo[1,2-a]pyrazin-7-yl]-4-fluorobenzamide] | 1010
7 | O=C(N[C@H]1C[C@H]2CN(S(=O)(=O)c3cc(C(F)(F)F)ccc3Cl)CCN2C1)c1ccc(F)cc1 [Example 4, N-[(7S,8aS)-2-{[2-chloro-5-(trifluoromethyl)phenyl]sulfonyl}octahydropyrrolo[1,2-a]pyrazin-7-yl]-4-fluorobenzamide] | 3830
8 | O=C(N[C@H]1C[C@H]2CN(S(=O)(=O)c3cccc(C(F)(F)F)c3)CCN2C1)c1ccc(Cl)cc1 [Example 5, 4-chloro-N-[(7S,8aS)-2-{[3-(trifluoromethyl)phenyl]sulfonyl}octahydropyrrolo[1,2-a]pyrazin-7-yl]benzamide] | 750
9 | O=C(N[C@H]1C[C@H]2CN(S(=O)(=O)c3ccc(C(F)(F)F)cc3)CCN2C1)c1ccc(Cl)cc1 [Example 6, 4-chloro-N-[(7S,8aS)-2-{[4-(trifluoromethyl)phenyl]sulfonyl}octahydropyrrolo[1,2-a]pyrazin-7-yl]benzamide] | 1600
10 | O=C(N[C@H]1C[C@H]2CN(S(=O)(=O)c3ccc(C(F)(F)F)cc3Cl)CCN2C1)c1ccc(Cl)cc1 [Example 7, 4-chloro-N-[(7S,8aS)-2-{[2-chloro-4-(trifluoromethyl)phenyl]sulfonyl}-octahydropyrrolo[1,2-a]pyrazin-7-yl]benzamide] | 1750
11 | O=C(N[C@H]1C[C@H]2CN(S(=O)(=O)c3ccc(F)cc3C(F)(F)F)CCN2C1)c1ccc(Cl)cc1 [Example 8, 4-chloro-N-[(7S,8aS)-2-{[4-fluoro-2-(trifluoromethyl)phenyl]sulfonyl}-octahydropyrrolo[1,2-a]pyrazin-7-yl]benzamide] | 3560
12 | O=C(N[C@H]1C[C@H]2CN(S(=O)(=O)c3ccccc3C(F)(F)F)CCN2C1)c1ccc(Cl)cc1 [Example 9, 4-chloro-N-[(7S,8aS)-2-{[2-(trifluoromethyl)phenyl]sulfonyl}octahydropyrrolo[1,2-a]pyrazin-7-yl]benzamide] | 5120
13 | O=C(N[C@H]1C[C@H]2CN(S(=O)(=O)c3ccc(C(F)(F)F)cc3)CCN2C1)c1ccc(F)cc1F [Example 11, 2,4-difluoro-N-[(7S,8aS)-2-{[4-(trifluoromethyl)phenyl]sulfonyl}octahydropyrrolo[1,2-a]pyrazin-7-yl]benzamide] | 2410
14 | O=C(N[C@H]1C[C@H]2CN(S(=O)(=O)c3ccc(Cl)cc3Cl)CCN2C1)c1ccc(F)cc1F [Example 12, N-{(7S,8aS)-2-[(2,4-dichlorophenyl)sulfonyl]octahydropyrrolo[1,2-a]pyrazin-7-yl}-2,4-difluorobenzamide] | 2530
15 | O=C(N[C@H]1C[C@H]2CN(S(=O)(=O)c3ccc(C(F)(F)F)cc3Cl)CCN2C1)c1ccc(F)c(F)c1 [Example 13, N-[(7S,8aS)-2-{[2-chloro-4-(trifluoromethyl)phenyl]sulfonyl}octahydropyrrolo[1,2-a]pyrazin-7-yl]-3,4-difluorobenzamide] | 950
16 | O=C(N[C@H]1C[C@H]2CN(S(=O)(=O)c3ccc(C(F)(F)F)cc3)CCN2C1)c1ccc(F)c(F)c1 [Example 14, 3,4-difluoro-N-[(7S,8aS)-2-{[4-(trifluoromethyl)phenyl]sulfonyl}octahydropyrrolo[1,2-a]pyrazin-7-yl]benzamide] | 1930
17 | O=S(=O)(c1cc(Cl)cc(Cl)c1)N1CCN2C[C@@H](Nc3cccc(C(F)(F)F)n3)C[C@H]2C1 [Example 15, (7S,8aS)-2-[(3,5-dichlorophenyl)sulfonyl]-N-[6-(trifluoromethyl)pyridin-2-yl]octahydropyrrolo[1,2-a]pyrazin-7-amine] | 1860
18 | O=S(=O)(c1ccc(C(F)(F)F)cc1Cl)N1CCN2C[C@@H](Nc3cccc(C(F)(F)F)n3)C[C@H]2C1 [Example 16, (7S,8aS)-2-{[2-chloro-4-(trifluoromethyl)phenyl]sulfonyl}-N-[6-(trifluoromethyl)pyridin-2-yl]octahydropyrrolo[1,2-a]pyrazin-7-amine] | 550
19 | O=S(=O)(c1cccc(C(F)(F)F)c1)N1CCN2C[C@@H](Oc3cnc(C4CC4)cn3)C[C@@H]2C1 [Example 18, (7S,8aR)-7-[(5-cyclopropylpyrazin-2-yl)oxy]-2-{[3-(trifluoromethyl)phenyl]-sulfonyl}octahydropyrrolo[1,2-a]pyrazine] | 530
20 | O=S(=O)(c1cccc(C(F)(F)F)c1)N1CCN2C[C@H](O)C[C@H]2C1 [Example 19, (7R,8aS)-2-{[3-(trifluoromethyl)phenyl]sulfonyl}octahydropyrrolo[1,2-a]-pyrazin-7-ol] | 1830
21 | O=S(=O)(c1ccc(C(F)(F)F)cc1Cl)N1CCN2C[C@H](Oc3cccc(C(F)(F)F)n3)C[C@H]2C1 [Example 20, (7R,8aS)-2-{[2-chloro-4-(trifluoromethyl)phenyl]sulfonyl}-7-{[6-(trifluoromethyl)pyridin-2-yl]oxy}octahydropyrrolo[1,2-a]pyrazine] | 1560
22 | O=S(=O)(c1cccc(C(F)(F)F)c1)N1CCN2C[C@H](Oc3cnc(C4CC4)cn3)C[C@H]2C1 [Example 21, (7R,8aS)-7-[(5-cyclopropylpyrazin-2-yl)oxy]-2-{[3-(trifluoromethyl)phenyl]-sulfonyl}octahydropyrrolo[1,2-a]pyrazine] | 490
23 | O=S(=O)(c1cccc(C(F)(F)F)c1)N1CCN2C[C@H](Oc3cnccn3)C[C@H]2C1 [Example 22, (7R,8aS)-7-(pyrazin-2-yloxy)-2-{[3-(trifluoromethyl)phenyl]sulfonyl}-octahydropyrrolo[1,2-a]pyrazine] | 2980
24 | O=S(=O)(c1cccc(C(F)(F)F)c1)N1CCN2C[C@H](Oc3cncc(C4CC4)n3)C[C@H]2C1 [Example 23, (7R,8aS)-7-[(6-cyclopropylpyrazin-2-yl)oxy]-2-{[3-(trifluoromethyl)phenyl]-sulfonyl}octahydropyrrolo[1,2-a]pyrazine] | 790
25 | O=S(=O)(c1ccc(C(F)(F)F)cc1)N1CCN2C[C@H](Oc3cnc(C4CC4)cn3)C[C@H]2C1 [Example 25, (7R,8aS)-7-[(5-cyclopropylpyrazin-2-yl)oxy]-2-{[4-(trifluoromethyl)-phenyl]sulfonyl}octahydropyrrolo[1,2-a]pyrazine] | 1330
26 | O=S(=O)(c1ccc(C(F)(F)F)cc1)N1CCN2C[C@H](Oc3cncc(C4CC4)n3)C[C@H]2C1 [Example 26, (7R,8aS)-7-[(6-cyclopropylpyrazin-2-yl)oxy]-2-{[4-(trifluoromethyl)phenyl]-sulfonyl}octahydropyrrolo[1,2-a]pyrazine] | 1360
27 | O=S(=O)(c1ccccc1C(F)(F)F)N1CCN2C[C@H](Oc3cnc(C4CC4)cn3)C[C@H]2C1 [Example 27, (7R,8aS)-7-[(5-cyclopropylpyrazin-2-yl)oxy]-2-{[2-(trifluoromethyl)phenyl]-sulfonyl}octahydropyrrolo[1,2-a]pyrazine] | 1630
28 | O=S(=O)(c1ccc(OC(F)(F)F)cc1)N1CCN2C[C@H](Oc3cnc(C4CC4)cn3)C[C@H]2C1 [Example 28, (7R,8aS)-7-[(5-cyclopropylpyrazin-2-yl)oxy]-2-{[4-(trifluoromethoxy)-phenyl]sulfonyl}octahydropyrrolo[1,2-a]pyrazine] | 1150
29 | O=S(=O)(c1ccc(OC(F)F)cc1)N1CCN2C[C@H](Oc3cnc(C4CC4)cn3)C[C@H]2C1 [Example 29, (7R,8aS)-7-[(5-cyclopropylpyrazin-2-yl)oxy]-2-{[4-(difluoromethoxy)-phenyl]sulfonyl}octahydropyrrolo[1,2-a]pyrazine] | 1460

From patent publication US8648074B2, “Substituted octahydropyrrolo[1,2-a]pyrazine sulfonamides as calcium channel blockers” (AbbVie Inc., priority 2011, dated 2014)
